Target: T1, IL-13Rα2 (human, UniProt Q14627 27-380)
T1 construct: whole, on cells; also called IL-13Rα2 receptor
T1 sequence (looked up): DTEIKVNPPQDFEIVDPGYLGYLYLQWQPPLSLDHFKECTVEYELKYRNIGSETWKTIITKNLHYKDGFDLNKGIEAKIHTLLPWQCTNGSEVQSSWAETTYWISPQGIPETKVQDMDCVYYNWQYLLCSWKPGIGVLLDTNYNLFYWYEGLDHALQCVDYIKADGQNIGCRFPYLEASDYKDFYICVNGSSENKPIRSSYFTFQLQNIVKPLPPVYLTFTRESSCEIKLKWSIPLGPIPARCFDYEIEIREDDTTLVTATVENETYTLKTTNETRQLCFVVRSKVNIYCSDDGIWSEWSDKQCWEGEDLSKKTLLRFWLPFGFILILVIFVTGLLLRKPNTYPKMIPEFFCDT
Experiment: biotin-conjugated proteins on GBM cells; method not given

B1: biotin-conjugated IL-13.E13K (ligand)
chain: not shown
B1: binds.

Source: patent US20200095302A1 (WAKE FOREST UNIVERSITY HEALTH SCIENCES, published 2020)
